The whole screen tested about 310,000 compounds, of which about 14,000 (4.5%) showed an effect of 50% or more. Effects have a minus sign here. This is one part of the list.
The compounds below were run against human ether-à-go-go-related gene (hERG) potassium channel (human, UniProt Q12809) (assay: primary screen, population patch clamp on CHO cells stably expressing hERG).
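Note: peak tail current of the secondary pulse compared with the same well before compound.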

Chain of human ether-à-go-go-related gene (hERG) potassium channel (Q12809 whole entry, looked up): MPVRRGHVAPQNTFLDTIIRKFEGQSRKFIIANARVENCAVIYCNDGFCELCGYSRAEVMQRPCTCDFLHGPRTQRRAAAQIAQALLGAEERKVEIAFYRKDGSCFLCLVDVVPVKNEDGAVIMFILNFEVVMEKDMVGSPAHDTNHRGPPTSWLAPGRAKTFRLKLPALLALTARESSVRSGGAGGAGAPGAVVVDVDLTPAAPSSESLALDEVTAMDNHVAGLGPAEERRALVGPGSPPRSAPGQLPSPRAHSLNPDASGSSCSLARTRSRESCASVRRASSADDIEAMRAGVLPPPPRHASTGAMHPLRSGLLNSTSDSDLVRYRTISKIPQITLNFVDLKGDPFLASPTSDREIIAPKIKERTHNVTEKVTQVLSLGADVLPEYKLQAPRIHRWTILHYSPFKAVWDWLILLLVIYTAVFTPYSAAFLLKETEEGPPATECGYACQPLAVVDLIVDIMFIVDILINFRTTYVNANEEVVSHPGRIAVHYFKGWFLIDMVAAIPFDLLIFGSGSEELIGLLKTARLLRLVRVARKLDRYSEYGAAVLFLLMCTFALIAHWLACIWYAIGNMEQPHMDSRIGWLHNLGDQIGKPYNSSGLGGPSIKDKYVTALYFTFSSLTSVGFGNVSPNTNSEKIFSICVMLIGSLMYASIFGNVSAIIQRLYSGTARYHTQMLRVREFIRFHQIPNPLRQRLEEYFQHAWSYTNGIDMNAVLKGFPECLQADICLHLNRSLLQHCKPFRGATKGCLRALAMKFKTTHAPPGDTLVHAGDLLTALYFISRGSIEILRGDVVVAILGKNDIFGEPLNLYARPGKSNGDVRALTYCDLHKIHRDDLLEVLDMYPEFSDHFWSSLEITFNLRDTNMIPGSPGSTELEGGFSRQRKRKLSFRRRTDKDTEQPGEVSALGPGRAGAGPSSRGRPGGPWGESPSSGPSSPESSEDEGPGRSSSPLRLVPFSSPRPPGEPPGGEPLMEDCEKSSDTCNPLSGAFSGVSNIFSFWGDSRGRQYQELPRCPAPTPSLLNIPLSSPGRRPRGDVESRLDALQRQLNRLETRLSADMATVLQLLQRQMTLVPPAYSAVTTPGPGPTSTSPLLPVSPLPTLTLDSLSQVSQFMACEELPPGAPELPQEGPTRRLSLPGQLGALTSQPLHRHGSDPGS

Compound	hERG current change (%, negative = inhibition) at 10uM [%]
COc1ccc(NC(=O)CCCN2C(=O)/C(=C\c3ccco3)SC2=S)cc1	2.84
CC(C)CN(C(=O)COc1ccc([N+](=O)[O-])cc1)c1c(N)n(CC(C)C)c(=O)[nH]c1=O	-13.6
O=C(CN1CCN(Cc2ccccc2Cl)CC1)N/N=C/c1ccccn1	-25.8
COc1ccc(NC(=O)CSc2nncs2)cc1OC	5.25
Cc1cccc(C(=O)Nc2cccc(OCC(=O)O)c2)c1	18.3
COC(=O)CSc1nc2nc(-c3cccs3)cc(C(F)(F)F)c2c(=O)[nH]1	17.7
O=C(c1ccccc1)N1CCSC1=S	-0.835
O=C1CN(C(=O)CCN2CCOCC2)C(c2ccccc2)c2cc(Br)ccc2N1 (stereo not shown)	-60.5
COC(=O)C1=C(N)Oc2cc(C)n(Cc3ccccc3)c(=O)c2C1c1ccccc1 (stereo not shown)	-6.61
CCOc1ccc(C(=O)Nc2c3c(nn2-c2cccc(Cl)c2)CS(=O)C3)cc1 (stereo not shown)	-18.8
COC(=O)c1ccc(/C=N/OCC(=O)NCCc2ccc(OC)c(OC)c2)cc1	-8.75
Cc1occc1-c1nnc(SCc2cc(=O)n3cc(Br)ccc3n2)n1C	-47.7
O=C(CN1C(=O)C2CCCCN2C(=O)c2ccccc21)Nc1ccc(F)cc1.O=C(O)C(=O)O (stereo not shown)	-1.9
COc1ccc(CCNC(=O)CS(=O)Cc2nc(-c3ccccc3F)oc2C)cc1OC (stereo not shown)	13
CCc1[nH]nc(C(=O)N2CCCC(N3CCN(c4ccccc4C)CC3)C2)c1C (stereo not shown)	-23.8
C=CCOC(=O)c1sc(NC(=O)c2ccc(OC)cc2)nc1C	20.2
Cc1ccccc1/C=C\c1nc2ccccc2c(=O)n1Cc1ccccc1	1.88
CCN(CC)P1(=O)OC(c2cc(OC)c(OC)c(OC)c2)=Nc2c1c(C)nn2-c1ccccc1 (stereo not shown)	-9.67
COc1ccc(-n2nc(C(=O)NCC(=O)NCCCN3CC(C)CC(C)C3)c3ccccc3c2=O)cc1 (stereo not shown)	-37.2
O=C(NCc1ccccc1)[C@@H]1CSC2c3ccccc3C(=O)N21 (stereo partly shown)	-2.83
Cc1cc(S(=O)(=O)NC2CCCCC2)ccc1OCC(=O)NCC1CCCO1 (stereo not shown)	11.9
CCCCn1c(SCC(=O)Nc2ccc3c(c2)CCC3)nc2ccccc2c1=O	-33.6
O=C(CSCc1ccc(Cl)cc1)N1CCCCC1	-2.62
O=c1[nH]c(=S)[nH]c(O)c1C(c1ccccn1)c1c(O)[nH]c(=S)[nH]c1=O	7.07
CCN(CC)C(=O)c1[nH]cnc1C(=O)Nc1ccc(OC)cc1	19
O=C(NC(=S)Nc1ccc(N2CCOCC2)cc1)c1cccs1	34.1
COc1ccc(C2(CNC(=O)c3ccccc3[N+](=O)[O-])CCOCC2)cc1	14.4
CCC(C(=O)N1CCN(S(=O)(=O)c2ccc(F)cc2)CC1)c1ccccc1 (stereo not shown)	-19

Compound	hERG current change (%, negative = inhibition) at 10uM [%]
COc1ccc(NC(=O)c2cc(-c3ccco3)nc3ccccc23)cc1S(=O)(=O)N1CCOCC1	-1
Cc1c(C(=O)OCC(=O)N(C)c2ccccc2)cccc1[N+](=O)[O-]	-13.4
N#CC1=C(N)OC2=C(CC/C2=C\c2ccc(F)cc2)C1c1ccc(F)cc1 (stereo not shown)	4.13
O=c1c(Cc2c(F)cccc2Cl)c(O)ccn1C1CC1	-11.7
COc1ccc(-c2noc(CCC(=O)NCc3cccnc3)n2)cc1	-6.1
COc1ccc(S(=O)(=O)N2CCOCC2)cc1NC(=O)CN1CCCC1	20.2
Oc1ccccc1N=Cc1ccc[nH]1	4.42
CCN(CC(=O)Nc1ccc2c(c1)OCCO2)C(=O)c1ccc(C)c(S(=O)(=O)N2CCOCC2)c1	4.73
Oc1ccccc1C1=NN(c2ccccc2)C(c2ccccc2)C1 (stereo not shown)	5.04
COc1cc(OC)cc(C(=O)Nn2cc(C(=O)N3CCN(C)CC3)c3ccccc3c2=O)c1	2.72
Cc1ccc(Cn2c(CCCO)nc3ccccc32)cc1	2.26
COc1ccc(NC(=S)NCCC(c2ccccc2)c2ccccc2)c(OC)c1	2.53
CCN(CC)S(=O)(=O)c1ccc2nc(COC(=O)c3n[nH]c4ccccc34)[nH]c2c1	5.75
COC(=O)CN(C(=S)Nc1ccc(Cl)cc1)C1CC(=O)N(c2ccc(OC)cc2)C1=O (stereo not shown)	-13.8
CCC(=O)Nc1ccc2c(c1)nc1n2CCN(C2CCCCC2)C1	-6.11
CCC(=O)NN1CCN(c2ccncc2S(=O)(=O)N2CCCCC2)CC1	5.14
O=C(CSc1nccn(-c2ccc(Br)cc2)c1=O)NCc1ccccc1	-3.38
CN(C(=O)c1cc(S(=O)(=O)N2CCCCC2)c[nH]1)C1CCCCC1	1.06
CN(C)CC(c1ccccc1)c1ccccc1.Cl	5.32
CC(C)(C)NC(=O)C(c1ccncc1)N(Cc1cccs1)C(=O)c1csnn1 (stereo not shown)	-0.691
Cc1nn(Cc2ccc(C(=O)N3N=C(C(F)F)CC3(O)C(F)F)cc2)c(C)c1[N+](=O)[O-] (stereo not shown)	-62.9
CCOC(=O)c1c(C)n(Cc2ccco2)c2c1cc(O)c1ccccc12	6.11
CCc1ccc(NC(=O)NCc2ccc3c(c2)OCO3)cc1	-11.4
CCOC(=O)C1=C(c2ccccc2)NC(=O)NC1c1ccc(OC)c(OC)c1 (stereo not shown)	48
Cc1ccccc1-n1c(-c2ccc(Br)o2)n[nH]c1=S	13.5
Cc1ccccc1N1C(=O)CC(=O)N(c2ccccc2C)C1=O	28.1
O=C(O)COc1ccccc1/C=C1\SC(=Nc2ccc(F)cc2)N(c2ccc(F)cc2)C1=O	-2.08
